# Test results as given in the supplement of paper PMC8728848.
# The other results are listed elsewhere or left out.
# Legend:
# Experiment in all cases: glycan array binding signal (z-score within array); higher = stronger binding
# Settings in all cases: glycan notation: IUPAC condensed, linker removed
# [1] = biological target: Gal(b1-4)GlcNAc(b1-2)Man(a1-6)Man(b1-4)GlcNAc(b1-4)GlcNAc
# Outline: (§1)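 Glycan array data were curated from 3228 arrays in the Consortium for Functional Glycomics database and kept only where the protein sequence was available. Glycan names were converted to IUPAC-condensed notation, and columns mapping to the same glycan were averaged. The binding signal is a within-array Z-score, averaged across arrays of the same protein sequence at different concentrations or buffers and across linkers. Negative Z-scores can be read as non-binding.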
# [2] = biological target: Gal(b1-4)GlcNAc(b1-2)Man(a1-6)[GlcNAc(b1-2)Man(a1-3)]Man(b1-4)GlcNAc(b1-4)GlcNAc
# Outline: as §1
# [3] = biological target: Gal(b1-4)GlcNAc(b1-2)Man(a1-6)[Man(a1-3)]Man(b1-4)GlcNAc(b1-4)GlcNAc
# Outline: as §1
# [4] = biological target: Gal(b1-4)GlcNAc(b1-2)[Gal(b1-4)GlcNAc(b1-4)]Man(a1-3)[Gal(b1-4)GlcNAc(b1-2)Man(a1-6)]Man(b1-4)GlcNAc(b1-4)GlcNAc
# Outline: as §1
# [5] = biological target: Gal(b1-4)GlcNAc(b1-2)[Gal(b1-4)GlcNAc(b1-4)]Man(a1-3)[Gal(b1-4)GlcNAc(b1-2)[Gal(b1-4)GlcNAc(b1-6)]Man(a1-6)]Man(b1-4)GlcNAc(b1-4)GlcNAc
# Outline: as §1
# [6] = biological target: Gal(b1-4)GlcNAc(b1-2)[Gal(b1-4)GlcNAc(b1-4)]Man(a1-3)[GlcNAc(b1-4)][Gal(b1-4)GlcNAc(b1-2)Man(a1-6)]Man(b1-4)GlcNAc(b1-4)GlcNAc
# Outline: as §1
# [7] = biological target: Gal(b1-4)GlcNAc(b1-2)[Gal(b1-4)GlcNAc(b1-6)]Man(a1-6)[GlcNAc(b1-4)][Gal(b1-4)GlcNAc(b1-2)Man(a1-3)]Man(b1-4)GlcNAc(b1-4)GlcNAc
# Outline: as §1
# [8] = biological target: Gal(b1-4)GlcNAc(b1-3)Gal(b1-3)GlcNAc
# Outline: as §1
# [9] = biological target: Gal(b1-4)GlcNAc(b1-3)Gal(b1-4)Glc
# Outline: as §1
# [10] = biological target: Gal(b1-4)GlcNAc(b1-3)Gal(b1-4)GlcNAc
# Outline: as §1
# [11] = biological target: Gal(b1-4)GlcNAc(b1-3)Gal(b1-4)GlcNAc(b1-3)Gal(b1-4)GlcNAc
# Outline: as §1
# [12] = biological target: Gal(b1-4)GlcNAc(b1-3)Gal(b1-4)[Fuc(a1-3)GlcNAc(b1-6)]Gal(b1-4)Glc
# Outline: as §1
# [13] = biological target: Gal(b1-4)GlcNAc(b1-3)Gal(b1-4)[Fuc(a1-3)]GlcNAc(b1-3)Gal(b1-4)[Fuc(a1-3)]GlcNAc
# Outline: as §1
# [14] = biological target: Gal(b1-4)GlcNAc(b1-3)GalNAc
# Outline: as §1
# [15] = biological target: Gal(b1-4)GlcNAc(b1-3)[Gal(b1-4)GlcNAc(b1-6)]Gal(b1-4)GlcNAc
# Outline: as §1
# [16] = biological target: Gal(b1-4)GlcNAc(b1-3)[Gal(b1-4)GlcNAc(b1-6)]GalNAc
# Outline: as §1
# [17] = biological target: Gal(b1-4)GlcNAc(b1-3)[GlcNAc(b1-6)]Gal(b1-4)GlcNAc
# Outline: as §1
# [18] = biological target: Gal(b1-4)GlcNAc(b1-6)Gal(b1-4)GlcNAc
# Outline: as §1
# [19] = biological target: Gal(b1-4)GlcNAc(b1-6)Gal(b1-4)GlcNAc(b1-6)GalNAc
# Outline: as §1
# [20] = biological target: Gal(b1-4)GlcNAc(b1-6)GalNAc
# Outline: as §1
# [21] = biological target: Gal(b1-4)GlcNAc(b1-6)[Gal(b1-3)]GalNAc
# Outline: as §1
# [22] = biological target: Gal(b1-4)GlcNAc(b1-6)[Gal(b1-3)]GlcNAc
# Outline: as §1
# [23] = biological target: Gal(b1-6)Gal
# Outline: as §1
# [24] = biological target: Gal3S(b1-3)GalNAc
# Outline: as §1
# [25] = biological target: Gal3S(b1-3)GlcNAc
# Outline: as §1
# [26] = biological target: Gal3S(b1-3)[Fuc(a1-4)]GlcNAc
# Outline: as §1
# [27] = biological target: Gal3S(b1-4)Glc
# Outline: as §1
# [28] = biological target: Gal3S(b1-4)Glc6S
# Outline: as §1
# [29] = biological target: Gal3S(b1-4)GlcNAc
# Outline: as §1
# [30] = biological target: Gal3S(b1-4)GlcNAc6S
# Outline: as §1
# [31] = biological target: Gal3S(b1-4)[Fuc(a1-3)]Glc
# Outline: as §1
# [32] = biological target: Gal3S(b1-4)[Fuc(a1-3)]Glc6S
# Outline: as §1
# [33] = biological target: Gal3S4S(b1-4)GlcNAc
# Outline: as §1
# [34] = biological target: Gal3S6S(b1-4)GlcNAc
# Outline: as §1
# [35] = biological target: Gal3S6S(b1-4)GlcNAc6S
# Outline: as §1
# [36] = biological target: Gal4S(b1-4)GlcNAc
# Outline: as §1
# [37] = biological target: Gal4S6S(b1-4)GlcNAc
# Outline: as §1
binder,measurement,setting,value
"AAL (Aleuria aurantia), P18891 (protein) PTEFLYTSKIAAISWAATGGRQQRVYFQDLNGKIREAQRGGDNPWTGGSSQNVIGEAKLFSPLAAVTWKSAQGIQIRVYCVNKDNILSEFVYDGSKWITGQLGSVGVKVGSNSKLAALQWGGSESAPPNIRVYYQKSNGSGSSIHEYVWSGKWTAGASFGSTVPGTGIGATAIGPGRLRIYYQATDNKIREHCWDSNSWYVGGFSASASAGVSIAAISWGSTPNIRVYWQKGREELYEAAYGGSWNTPGQIKDASRPTPSLPDTFIAANSSGNIDISVFFQASGVSLQQWQWISGKGWSIGAVVPTGTPAGW",glycan array binding signal (z-score),[1],-0.439
same,glycan array binding signal (z-score),[2],-0.434
same,glycan array binding signal (z-score),[3],-0.428
same,glycan array binding signal (z-score),[4],-0.353
same,glycan array binding signal (z-score),[5],-0.394
same,glycan array binding signal (z-score),[6],-0.348
same,glycan array binding signal (z-score),[7],-0.429
same,glycan array binding signal (z-score),[8],-0.42
same,glycan array binding signal (z-score),[9],-0.505
same,glycan array binding signal (z-score),[10],-0.491
same,glycan array binding signal (z-score),[11],-0.488
same,glycan array binding signal (z-score),[12],0.521
same,glycan array binding signal (z-score),[13],1.71
same,glycan array binding signal (z-score),[14],-0.451
same,glycan array binding signal (z-score),[15],-0.437
same,glycan array binding signal (z-score),[16],-0.507
same,glycan array binding signal (z-score),[17],-0.425
same,glycan array binding signal (z-score),[18],-0.421
same,glycan array binding signal (z-score),[19],-0.572
same,glycan array binding signal (z-score),[20],-0.524
same,glycan array binding signal (z-score),[21],-0.459
same,glycan array binding signal (z-score),[22],-0.654
same,glycan array binding signal (z-score),[23],-0.449
same,glycan array binding signal (z-score),[24],-0.499
same,glycan array binding signal (z-score),[25],-0.5
same,glycan array binding signal (z-score),[26],1.92
same,glycan array binding signal (z-score),[27],-0.493
same,glycan array binding signal (z-score),[28],-0.488
same,glycan array binding signal (z-score),[29],-0.519
same,glycan array binding signal (z-score),[30],-0.459
same,glycan array binding signal (z-score),[31],0.541
same,glycan array binding signal (z-score),[32],0.357
same,glycan array binding signal (z-score),[33],-0.432
same,glycan array binding signal (z-score),[34],-0.482
same,glycan array binding signal (z-score),[35],-0.495
same,glycan array binding signal (z-score),[36],-0.535
same,glycan array binding signal (z-score),[37],-0.491
